Measured values: the supplement of paper PMC8728848
The other results are listed elsewhere or left out.

What was measured:
Assay in all cases: glycan array binding signal (z-score within array); higher = stronger binding
Conditions in all cases: glycan notation: IUPAC condensed, linker removed
[1] = target: GlcNAc(b1-6)Gal(b1-4)GlcNAc
How it was run: (§1)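 Glycan array data were curated from 3228 arrays in the Consortium for Functional Glycomics database and kept only where the protein sequence was available. Glycan names were converted to IUPAC-condensed notation, and columns mapping to the same glycan were averaged. The binding signal is a within-array Z-score, averaged across arrays of the same protein sequence at different concentrations or buffers and across linkers. Negative Z-scores can be read as non-binding.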

GlcNAc(b1-6)GalNAc = target: GlcNAc(b1-6)GalNAc
How it was run: as §1

GlcNAc3Prop(b1-4)GlcNAc = target: GlcNAc3Prop(b1-4)GlcNAc
How it was run: as §1

[2] = target: GlcNAc6S(b1-3)Gal(b1-4)GlcNAc
How it was run: as §1

Kdn(a2-3)Gal(b1-3)GalNAc = target: Kdn(a2-3)Gal(b1-3)GalNAc
How it was run: as §1

Kdn(a2-3)Gal(b1-3)GlcNAc = target: Kdn(a2-3)Gal(b1-3)GlcNAc
How it was run: as §1

Kdn(a2-3)Gal(b1-4)Glc = target: Kdn(a2-3)Gal(b1-4)Glc
How it was run: as §1

Kdn(a2-3)Gal(b1-4)GlcNAc = target: Kdn(a2-3)Gal(b1-4)GlcNAc
How it was run: as §1

[3] = target: Kdn(a2-3)Gal(b1-4)[Fuc(a1-3)]GlcNAc
How it was run: as §1

Kdn(a2-6)Gal(b1-4)GlcNAc = target: Kdn(a2-6)Gal(b1-4)GlcNAc
How it was run: as §1

[4] = target: Man(a1-2)Man(a1-2)Man(a1-3)Man
How it was run: as §1

[5] = target: Man(a1-2)Man(a1-2)Man(a1-6)[Man(a1-3)]Man
How it was run: as §1

Man(a1-2)Man(a1-3)Man = target: Man(a1-2)Man(a1-3)Man
How it was run: as §1

[6] = target: Man(a1-2)Man(a1-3)[Man(a1-2)Man(a1-6)]Man
How it was run: as §1

[7] = target: Man(a1-2)Man(a1-3)[Man(a1-2)Man(a1-6)]Man(a1-6)[Man(a1-2)Man(a1-2)Man(a1-3)]Man
How it was run: as §1

[8] = target: Man(a1-2)Man(a1-3)[Man(a1-2)Man(a1-6)]Man(a1-6)[Man(a1-2)Man(a1-2)Man(a1-3)]Man(b1-4)GlcNAc(b1-4)GlcNAc
How it was run: as §1

[9] = target: Man(a1-2)Man(a1-3)[Man(a1-6)]Man(a1-6)[Man(a1-2)Man(a1-3)]Man(b1-4)GlcNAc(b1-4)GlcNAc
How it was run: as §1

[10] = target: Man(a1-2)Man(a1-6)[Man(a1-3)]Man(a1-6)[Man(a1-2)Man(a1-2)Man(a1-3)]Man
How it was run: as §1

[11] = target: Man(a1-2)Man(a1-6)[Man(a1-3)]Man(a1-6)[Man(a1-2)Man(a1-2)Man(a1-3)]Man(b1-4)GlcNAc(b1-4)GlcNAc
How it was run: as §1

Man(a1-3)[Man(a1-6)]Man = target: Man(a1-3)[Man(a1-6)]Man
How it was run: as §1

[12] = target: Man(a1-3)[Man(a1-6)]Man(a1-6)[Man(a1-2)Man(a1-3)]Man(b1-4)GlcNAc(b1-4)GlcNAc
How it was run: as §1

[13] = target: Man(a1-3)[Man(a1-6)]Man(a1-6)[Man(a1-3)]Man
How it was run: as §1

[14] = target: Man(a1-3)[Man(a1-6)]Man(a1-6)[Man(a1-3)]Man(b1-4)GlcNAc(b1-4)GlcNAc
How it was run: as §1

[15] = target: Man(a1-3)[Man(a1-6)]Man(b1-4)GlcNAc(b1-4)GlcNAc
How it was run: as §1

[16] = target: Man(a1-3)[Man(a1-6)]Man(b1-4)GlcNAc(b1-4)[Fuc(a1-6)]GlcNAc
How it was run: as §1

Man(a1-6)Man = target: Man(a1-6)Man
How it was run: as §1

Man(b1-4)GlcNAc = target: Man(b1-4)GlcNAc
How it was run: as §1

Neu5Ac(a2-3)Gal = target: Neu5Ac(a2-3)Gal
How it was run: as §1

[17] = target: Neu5Ac(a2-3)Gal(b1-3)GalNAc
How it was run: as §1

[18] = target: Neu5Ac(a2-3)Gal(b1-3)GalNAc(b1-3)Gal(a1-4)Gal(b1-4)Glc
How it was run: as §1

[19] = target: Neu5Ac(a2-3)Gal(b1-3)GalNAc(b1-4)[Neu5Ac(a2-3)]Gal(b1-4)Glc
How it was run: as §1

[20] = target: Neu5Ac(a2-3)Gal(b1-3)GalNAc(b1-4)[Neu5Ac(a2-8)Neu5Ac(a2-3)]Gal(b1-4)Glc
How it was run: as §1

[21] = target: Neu5Ac(a2-3)Gal(b1-3)GalNAc6S
How it was run: as §1

[22] = target: Neu5Ac(a2-3)Gal(b1-3)GlcNAc
How it was run: as §1

[23] = target: Neu5Ac(a2-3)Gal(b1-3)GlcNAc(b1-2)Man(a1-3)[GlcNAc(b1-4)][Neu5Ac(a2-3)Gal(b1-3)GlcNAc(b1-2)Man(a1-6)]Man(b1-4)GlcNAc(b1-4)GlcNAc
How it was run: as §1

[24] = target: Neu5Ac(a2-3)Gal(b1-3)GlcNAc(b1-3)Gal(b1-3)GlcNAc
How it was run: as §1

[25] = target: Neu5Ac(a2-3)Gal(b1-3)GlcNAc(b1-3)Gal(b1-4)GlcNAc
How it was run: as §1

[26] = target: Neu5Ac(a2-3)Gal(b1-3)GlcNAc(b1-3)GalNAc
How it was run: as §1

[27] = target: Neu5Ac(a2-3)Gal(b1-3)GlcNAc(b1-6)GalNAc
How it was run: as §1

[28] = target: Neu5Ac(a2-3)Gal(b1-3)GlcNAc6S
How it was run: as §1

[29] = target: Neu5Ac(a2-3)Gal(b1-3)[Fuc(a1-4)]GlcNAc
How it was run: as §1

[30] = target: Neu5Ac(a2-3)Gal(b1-3)[Fuc(a1-4)]GlcNAc(b1-3)Gal(b1-3)[Fuc(a1-4)]GlcNAc
How it was run: as §1

[31] = target: Neu5Ac(a2-3)Gal(b1-3)[Fuc(a1-4)]GlcNAc(b1-3)Gal(b1-4)[Fuc(a1-3)]GlcNAc
How it was run: as §1

[32] = target: Neu5Ac(a2-3)Gal(b1-3)[Neu5Ac(a2-3)Gal(b1-4)]GlcNAc
How it was run: as §1

[33] = target: Neu5Ac(a2-3)Gal(b1-3)[Neu5Ac(a2-6)]GalNAc
How it was run: as §1

B1: SalT (Orysata sativa) (protein)
chain: MTLVKIGLWGGNGGSAQDISVPPKKLLGVTIYSSDAIRSIAFNYIGVDGQEYAIGPWGGGEGTSTEIKLGSSEHIKEISGTHGPVYDLADIVTYLKIVTSANNTYEAGVPNGKEFSIPLQDSGHVVGFFGRSGTLIDAIGIYVHPILEQKLISEEDLNSAVDHHHHHH
glycan array binding signal (z-score) [1]: -0.306 | glycan array binding signal (z-score) (GlcNAc(b1-6)GalNAc): -0.309 | glycan array binding signal (z-score) (GlcNAc3Prop(b1-4)GlcNAc): -0.309 | glycan array binding signal (z-score) [2]: -0.308 | glycan array binding signal (z-score) (Kdn(a2-3)Gal(b1-3)GalNAc): -0.211 | glycan array binding signal (z-score) (Kdn(a2-3)Gal(b1-3)GlcNAc): -0.306 | glycan array binding signal (z-score) (Kdn(a2-3)Gal(b1-4)Glc): -0.306 | glycan array binding signal (z-score) (Kdn(a2-3)Gal(b1-4)GlcNAc): -0.309 | glycan array binding signal (z-score) [3]: -0.302 | glycan array binding signal (z-score) (Kdn(a2-6)Gal(b1-4)GlcNAc): -0.31 | glycan array binding signal (z-score) [4]: -0.3 | glycan array binding signal (z-score) [5]: -0.294 | glycan array binding signal (z-score) (Man(a1-2)Man(a1-3)Man): -0.307 | glycan array binding signal (z-score) [6]: -0.295 | glycan array binding signal (z-score) [7]: -0.304 | glycan array binding signal (z-score) [8]: 2.07 | glycan array binding signal (z-score) [9]: 0.177 | glycan array binding signal (z-score) [10]: -0.282 | glycan array binding signal (z-score) [11]: 1.35 | glycan array binding signal (z-score) (Man(a1-3)[Man(a1-6)]Man): -0.235 | glycan array binding signal (z-score) [12]: 5.46 | glycan array binding signal (z-score) [13]: -0.273 | glycan array binding signal (z-score) [14]: 3.62 | glycan array binding signal (z-score) [15]: 4.94 | glycan array binding signal (z-score) [16]: 3.1 | glycan array binding signal (z-score) (Man(a1-6)Man): -0.307 | glycan array binding signal (z-score) (Man(b1-4)GlcNAc): -0.312 | glycan array binding signal (z-score) (Neu5Ac(a2-3)Gal): -0.309 | glycan array binding signal (z-score) [17]: -0.308 | glycan array binding signal (z-score) [18]: -0.311 | glycan array binding signal (z-score) [19]: -0.304 | glycan array binding signal (z-score) [20]: -0.308 | glycan array binding signal (z-score) [21]: -0.31 | glycan array binding signal (z-score) [22]: -0.303 | glycan array binding signal (z-score) [23]: -0.125 | glycan array binding signal (z-score) [24]: -0.31 | glycan array binding signal (z-score) [25]: -0.309 | glycan array binding signal (z-score) [26]: -0.308 | glycan array binding signal (z-score) [27]: -0.306 | glycan array binding signal (z-score) [28]: -0.305 | glycan array binding signal (z-score) [29]: -0.311 | glycan array binding signal (z-score) [30]: -0.305 | glycan array binding signal (z-score) [31]: -0.303 | glycan array binding signal (z-score) [32]: -0.307 | glycan array binding signal (z-score) [33]: -0.277
